Measured values taken from the supplement of paper PMC10441789.
The list shows a part of the results. Antibody binding of pooled human sera (four to six donors per pool; dilution not stated) to peptides of the Trypanosoma cruzi antigen TSSA on microarrays. Quantile-normalised fluorescence in arbitrary units, mean of duplicate arrays; higher = more binding. No active / inactive call. The uninfected pools are read here as the healthy donors of the same country. The strongest signals lie near the top of the scale (about 60,000).

What was measured:
Experiment in all cases: antibody binding signal (normalised fluorescence) (arbitrary fluorescence units); higher = stronger serum antibody binding to peptide
[1] = test system: pooled sera of chronic Chagas disease patients, Argentina
Experimental: (§1)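 Microarray of 15-residue peptides over residues 30-55 of Trypanosoma cruzi TSSAII, each with 1 to 10 substitutions at naturally variable positions, probed with one serum pool per country.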

[2] = test system: pooled sera of chronic Chagas disease patients, Bolivia
Experimental: as §1

[3] = test system: pooled sera of chronic Chagas disease patients, Brazil
Experimental: as §1

[4] = test system: pooled sera of chronic Chagas disease patients, Colombia
Experimental: as §1

[5] = test system: pooled sera of chronic Chagas disease patients, Mexico
Experimental: as §1

[6] = test system: pooled sera of chronic Chagas disease patients, USA
Experimental: as §1

[7] = test system: pooled sera of uninfected people, Argentina
Experimental: as §1

[8] = test system: pooled sera of uninfected people, Bolivia
Experimental: as §1

[9] = test system: pooled sera of uninfected people, Brazil
Experimental: as §1

[10] = test system: pooled sera of uninfected people, Colombia
Experimental: as §1

[11] = test system: pooled sera of uninfected people, Mexico
Experimental: as §1

[12] = test system: pooled sera of uninfected people, USA
Experimental: as §1

Sequence | antibody binding signal [1] | antibody binding signal [2] | antibody binding signal [3] | antibody binding signal [4] | antibody binding signal [5] | antibody binding signal [6] | antibody binding signal [7] | antibody binding signal [8] | antibody binding signal [9] | antibody binding signal [10] | antibody binding signal [11] | antibody binding signal [12]
GTDKKTAAGEAPSPP | 210 | 238 | 1040 | 974 | 428 | 8390 | 164 | 226 | 195 | 1290 | 192 | 108
GKEKKTAAGETPSQS | 3100 | 268 | 337 | 2220 | 2490 | 2180 | 108 | 103 | 106 | 216 | 87.7 | 127
GKDKKPATGGAPSPS | 868 | 863 | 399 | 1250 | 1430 | 2000 | 247 | 406 | 113 | 90 | 103 | 112
SGTDKKTATGEAPSP | 12900 | 26300 | 12000 | 1200 | 331 | 22700 | 169 | 138 | 423 | 191 | 223 | 133
GKDKKTAAGGTPSPS | 300 | 222 | 184 | 3350 | 390 | 1610 | 109 | 86.2 | 304 | 136 | 72.7 | 121
GTDKKTAAGGTPSQP |  | 230 | 365 | 12300 | 469 | 1960 | 366 | 191 | 606 | 457 | 908 | 112
SGKEKKTAAGEAPSP | 3340 | 428 | 3570 | 2390 | 5910 | 8160 | 225 | 147 | 101 | 376 | 133 | 98.6
SGTEKKAAAGETPSP | 495 | 480 | 1630 | 620 | 651 | 2180 | 125 | 540 | 233 | 181 | 188 | 507
GKDKKAATGGTPSQP | 527 | 231 | 321 | 1130 | 1720 | 736 | 259 | 80.6 | 152 | 240 | 222 | 108
GTENKTATGETPSPS | 25100 | 7750 | 2140 | 1540 | 2090 | 7790 | 135 | 346 | 148 | 217 | 390 | 2030
KENKAATGGTPSQSG | 279 | 318 | 314 | 233 | 283 | 206 | 193 | 102 | 160 | 107 | 98.3 | 146
KEKKAATGGAPSPSG | 449 | 230 | 192 | 631 | 385 | 518 | 206 | 168 | 94.5 | 280 | 80 | 82.7
DNKTAAGGTPSQPGA | 1410 | 307 | 1640 | 5620 | 354 | 1440 | 370 | 355 | 1410 | 389 | 2790 | 194
SGTEKKAAAGGTPSP | 1020 | 213 | 1310 | 10200 | 1670 | 2630 | 128 | 612 | 1680 | 215 | 102 | 209
STPPSGTENKPATGG | 52100 | 48900 | 52900 | 366 | 10500 | 49000 | 9410 | 2070 | 812 | 845 | 681 | 863
EKKAATGETPSPPGA | 1970 | 1160 | 14700 | 296 | 412 | 9850 | 768 | 921 | 148 | 948 | 375 | 1760
TPPSGTEKKPAAGEA | 43100 | 37500 | 41700 | 434 | 17400 | 7580 | 1060 | 612 | 940 | 215 | 212 | 293
TDNKTAAGGAPSQPG | 331 | 1090 | 3600 | 4300 | 398 | 282 | 277 | 279 | 768 | 196 | 227 | 201
STPPSGKDNKPATGG |  | 4510 | 31700 | 294 | 39600 | 14800 | 724 | 1500 | 177 | 183 | 316 | 556

Sequence | antibody binding signal [1] | antibody binding signal [2] | antibody binding signal [3] | antibody binding signal [4] | antibody binding signal [5] | antibody binding signal [6] | antibody binding signal [7] | antibody binding signal [8] | antibody binding signal [9] | antibody binding signal [10] | antibody binding signal [11] | antibody binding signal [12]
SGTDKKTATGGTPSP | 1110 | 660 | 1340 | 8110 | 984 | 1980 | 355 | 169 | 245 | 856 | 225 | 163
SGTEKKAAAGGAPSQ | 1010 | 253 | 1260 | 9060 | 2150 | 1490 | 185 | 368 | 307 | 147 | 157 | 139
PPSGKEKKTATGETP | 1860 | 663 | 2310 | 2000 | 3270 | 4760 | 478 | 619 | 104 | 249 | 130 | 171
TPPSGTDKKTATGGT |  | 3110 | 24100 | 2010 | 37400 | 2340 | 288 | 209 | 814 | 245 | 307 | 185
TPPSGKDKKTATGGT | 5720 | 326 | 683 | 549 | 38700 | 1150 | 171 | 188 | 279 | 193 | 75.4 | 115
PSGKEKKAATGEAPS | 18900 | 4450 | 16700 | 3840 | 4700 | 19200 | 595 | 260 | 110 | 305 | 97 | 138
KAATGEAPSPPGASS | 22700 | 26000 | 29300 | 338 | 200 | 21200 | 283 | 140 | 129 | 118 | 109 | 136
GTDNKAATGEAPSPP | 27300 | 41900 | 41700 | 279 | 337 | 26600 | 134 | 593 | 782 | 105 | 106 | 109
GKDNKPATGEAPSQS | 43600 | 30300 | 48200 | 4610 | 7830 | 41600 | 1010 | 1410 | 221 | 398 | 406 | 138
TISTPPSGKEKKPAA | 20400 | 317 | 627 | 266 | 33000 | 441 | 940 | 622 | 204 | 321 | 111 | 259
PSGTDKKPATGGTPS | 4990 | 880 | 27000 | 9920 | 2670 | 2490 | 256 | 598 | 482 | 296 | 1420 | 297
SGKENKTAAGETPSP | 2950 | 3840 | 16100 | 5520 | 4450 | 17200 | 6850 | 2570 | 197 | 458 | 693 | 585
TDKKPAAGEAPSQSG | 575 | 13200 | 20400 | 276 | 238 | 14800 | 66.4 | 298 | 146 | 78.5 | 139 | 99.8
TDKKAATGETPSPSG | 1290 | 2650 | 11200 | 220 | 212 | 11400 | 340 | 199 | 323 | 497 | 464 | 1910
PPSGKDKKPATGGAP | 1530 | 748 | 1420 | 954 | 38800 | 1890 | 429 | 857 | 113 | 251 | 100 | 253
PPSGTDNKAAAGGAP | 48100 | 41500 | 49300 | 3180 | 2770 | 5130 | 1120 | 845 | 1800 | 817 | 369 | 732
GTENKAATGGTPSQS | 37800 | 1510 | 1070 | 1830 | 2510 | 1300 | 302 | 518 | 313 | 282 | 331 | 142
KAAAGGTPSPSGASS |  | 257 | 198 | 4430 | 2090 | 967 | 139 | 117 | 390 | 226 | 78.8 | 181
